The text below walks through data of PMC11638247.

Amino acid sequences for entries named in this document (tags omitted).
UniProt Q9EPN1: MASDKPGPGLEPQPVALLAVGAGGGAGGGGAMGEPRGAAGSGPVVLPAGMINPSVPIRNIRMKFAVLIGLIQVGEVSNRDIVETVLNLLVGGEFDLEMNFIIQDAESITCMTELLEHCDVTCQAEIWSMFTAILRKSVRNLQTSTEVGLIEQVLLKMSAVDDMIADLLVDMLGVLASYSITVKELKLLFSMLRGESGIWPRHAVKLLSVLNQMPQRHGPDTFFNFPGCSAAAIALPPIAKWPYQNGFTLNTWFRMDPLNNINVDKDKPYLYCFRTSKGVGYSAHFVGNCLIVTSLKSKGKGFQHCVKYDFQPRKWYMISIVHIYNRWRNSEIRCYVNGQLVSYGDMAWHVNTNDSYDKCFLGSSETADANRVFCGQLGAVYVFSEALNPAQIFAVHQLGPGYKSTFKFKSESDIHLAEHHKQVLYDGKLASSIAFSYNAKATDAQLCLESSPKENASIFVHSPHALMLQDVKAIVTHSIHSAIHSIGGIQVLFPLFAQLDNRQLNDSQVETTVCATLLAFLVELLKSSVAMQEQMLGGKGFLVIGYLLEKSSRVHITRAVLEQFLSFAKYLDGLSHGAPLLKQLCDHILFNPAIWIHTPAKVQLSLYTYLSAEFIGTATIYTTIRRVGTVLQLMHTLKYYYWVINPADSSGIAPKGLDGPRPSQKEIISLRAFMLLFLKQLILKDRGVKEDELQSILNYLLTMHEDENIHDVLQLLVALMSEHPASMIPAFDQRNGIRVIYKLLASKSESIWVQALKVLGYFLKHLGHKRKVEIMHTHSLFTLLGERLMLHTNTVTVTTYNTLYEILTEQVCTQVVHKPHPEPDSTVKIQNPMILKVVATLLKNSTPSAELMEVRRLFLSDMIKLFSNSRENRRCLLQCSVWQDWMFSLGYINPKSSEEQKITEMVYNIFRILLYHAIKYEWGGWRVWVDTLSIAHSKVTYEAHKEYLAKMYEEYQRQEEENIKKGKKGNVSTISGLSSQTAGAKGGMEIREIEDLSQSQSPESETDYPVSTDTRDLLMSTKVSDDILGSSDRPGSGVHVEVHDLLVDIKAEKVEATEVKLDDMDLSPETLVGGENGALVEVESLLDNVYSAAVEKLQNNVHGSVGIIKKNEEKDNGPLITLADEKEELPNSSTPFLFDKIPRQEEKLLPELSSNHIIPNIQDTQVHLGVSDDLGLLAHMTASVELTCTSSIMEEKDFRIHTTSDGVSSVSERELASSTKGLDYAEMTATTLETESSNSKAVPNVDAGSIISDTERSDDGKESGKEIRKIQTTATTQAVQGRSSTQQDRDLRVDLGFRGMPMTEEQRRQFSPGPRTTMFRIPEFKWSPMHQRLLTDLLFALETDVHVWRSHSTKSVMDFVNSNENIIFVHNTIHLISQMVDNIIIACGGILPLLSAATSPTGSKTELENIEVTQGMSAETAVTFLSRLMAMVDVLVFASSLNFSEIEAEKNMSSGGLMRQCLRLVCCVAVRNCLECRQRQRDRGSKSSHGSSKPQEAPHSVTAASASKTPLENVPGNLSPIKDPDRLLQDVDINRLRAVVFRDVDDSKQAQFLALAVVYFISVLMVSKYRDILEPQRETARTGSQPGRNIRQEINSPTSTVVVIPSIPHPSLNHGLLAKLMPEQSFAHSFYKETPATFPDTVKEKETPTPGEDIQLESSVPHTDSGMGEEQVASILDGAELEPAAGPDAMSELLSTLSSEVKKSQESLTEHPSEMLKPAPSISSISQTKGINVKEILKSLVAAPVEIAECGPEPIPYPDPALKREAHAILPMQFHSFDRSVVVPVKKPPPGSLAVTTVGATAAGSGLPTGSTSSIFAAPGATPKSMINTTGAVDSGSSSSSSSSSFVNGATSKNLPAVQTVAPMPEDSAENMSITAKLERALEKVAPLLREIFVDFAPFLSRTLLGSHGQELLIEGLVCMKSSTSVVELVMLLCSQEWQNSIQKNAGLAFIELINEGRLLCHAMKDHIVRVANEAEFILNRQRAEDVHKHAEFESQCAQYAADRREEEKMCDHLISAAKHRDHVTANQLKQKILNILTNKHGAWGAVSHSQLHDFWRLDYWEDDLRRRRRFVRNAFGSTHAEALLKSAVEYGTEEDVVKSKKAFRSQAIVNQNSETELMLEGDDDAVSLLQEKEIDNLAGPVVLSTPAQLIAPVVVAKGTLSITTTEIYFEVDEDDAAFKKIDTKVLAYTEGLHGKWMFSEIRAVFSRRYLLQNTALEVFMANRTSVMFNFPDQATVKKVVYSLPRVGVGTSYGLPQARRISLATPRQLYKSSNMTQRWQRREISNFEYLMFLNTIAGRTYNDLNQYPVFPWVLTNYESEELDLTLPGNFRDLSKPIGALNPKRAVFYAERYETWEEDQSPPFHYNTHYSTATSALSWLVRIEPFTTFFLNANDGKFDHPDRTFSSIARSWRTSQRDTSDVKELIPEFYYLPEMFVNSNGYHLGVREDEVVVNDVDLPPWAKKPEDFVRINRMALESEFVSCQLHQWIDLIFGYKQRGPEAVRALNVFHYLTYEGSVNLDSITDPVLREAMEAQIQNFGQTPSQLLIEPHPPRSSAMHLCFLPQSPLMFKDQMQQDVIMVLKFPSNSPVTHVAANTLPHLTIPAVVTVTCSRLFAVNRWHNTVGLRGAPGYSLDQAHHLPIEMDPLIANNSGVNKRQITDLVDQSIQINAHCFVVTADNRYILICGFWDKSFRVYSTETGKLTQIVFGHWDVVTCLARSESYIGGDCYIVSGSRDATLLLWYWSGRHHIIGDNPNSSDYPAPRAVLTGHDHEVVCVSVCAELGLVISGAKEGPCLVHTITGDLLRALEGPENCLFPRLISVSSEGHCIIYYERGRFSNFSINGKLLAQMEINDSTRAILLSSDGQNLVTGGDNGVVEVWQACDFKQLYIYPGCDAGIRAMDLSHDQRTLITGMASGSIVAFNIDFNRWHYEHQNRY

These are yes or no findings as the source states them, for the method shown. For some assays here: Binding seen in cells or lysates may run through a third protein. Some entries that bind do so weakly or less than the wild type.

The target of assay [1] is T1, GABAA receptor γ2 subunit (GABAAR γ2-containing receptors), endogenous (mouse (endogenous in cortex)) (UniProt P22723).
T1 sequence: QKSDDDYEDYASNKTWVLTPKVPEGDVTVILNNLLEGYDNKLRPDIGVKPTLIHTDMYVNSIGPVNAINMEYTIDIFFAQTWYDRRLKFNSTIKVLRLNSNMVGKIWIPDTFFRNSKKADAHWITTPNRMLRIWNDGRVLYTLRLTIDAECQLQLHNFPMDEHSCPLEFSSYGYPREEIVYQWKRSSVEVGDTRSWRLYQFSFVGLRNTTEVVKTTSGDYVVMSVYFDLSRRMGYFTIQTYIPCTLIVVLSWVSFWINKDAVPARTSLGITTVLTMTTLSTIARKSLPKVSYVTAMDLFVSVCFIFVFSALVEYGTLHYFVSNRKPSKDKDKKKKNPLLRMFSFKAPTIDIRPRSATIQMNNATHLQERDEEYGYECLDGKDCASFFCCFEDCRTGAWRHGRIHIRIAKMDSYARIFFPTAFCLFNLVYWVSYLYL
Briefly: co-IP; antibody on Dynabeads Protein G incubated 2-4 h with adult mouse cortical lysate P2; IM-Ac buffer with 1% Triton, pH 7.2, 4 °C; Western blot. In general terms: Immunoblotting shows a protein as a band on a membrane.

For assay [2], the target named is T2, Gephyrin (endogenous) (mouse (endogenous in cortex)) (UniProt Q8BUV3).
T2 sequence: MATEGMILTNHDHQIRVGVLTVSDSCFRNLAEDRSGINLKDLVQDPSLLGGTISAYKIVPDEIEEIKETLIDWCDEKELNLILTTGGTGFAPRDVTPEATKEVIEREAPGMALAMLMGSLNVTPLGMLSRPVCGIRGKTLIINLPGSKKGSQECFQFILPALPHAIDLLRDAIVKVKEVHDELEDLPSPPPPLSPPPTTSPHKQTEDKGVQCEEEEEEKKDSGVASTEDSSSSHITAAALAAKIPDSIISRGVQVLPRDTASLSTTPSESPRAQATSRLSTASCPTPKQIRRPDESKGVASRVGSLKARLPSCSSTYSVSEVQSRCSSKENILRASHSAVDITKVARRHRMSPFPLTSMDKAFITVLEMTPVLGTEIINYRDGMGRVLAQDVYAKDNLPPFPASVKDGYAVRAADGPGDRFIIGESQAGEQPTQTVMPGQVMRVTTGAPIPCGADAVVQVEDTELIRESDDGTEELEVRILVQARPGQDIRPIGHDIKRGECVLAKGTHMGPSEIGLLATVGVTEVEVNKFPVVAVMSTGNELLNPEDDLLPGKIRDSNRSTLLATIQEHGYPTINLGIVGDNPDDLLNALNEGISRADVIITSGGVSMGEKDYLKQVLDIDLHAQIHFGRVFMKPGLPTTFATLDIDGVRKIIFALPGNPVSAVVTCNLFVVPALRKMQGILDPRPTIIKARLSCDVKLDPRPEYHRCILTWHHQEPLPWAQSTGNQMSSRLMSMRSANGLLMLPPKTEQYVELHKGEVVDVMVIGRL
Described as above.

Assay [3] has as its target T3, Gephyrin peptide No. 2 (mouse).
T3 sequence (peptide): VKEVHDELEDLPSPP
Description: peptide or protein array; gephyrin peptides (residues 171-375) immobilised in CelluSpot format; incubated with whole brain lysate 5 h at RT; bound Nbea detected with anti-neurobeachin antibodies, chemiluminescence; only the target purified.

Assay [4] addresses T4, Gephyrin peptide No. 19 (mouse).
T4 sequence (peptide): ASLSTTPSESPRAQA
The description is as above.

For assay [5], the target named is T5, Gephyrin peptide No. 39 (mouse).
T5 sequence (peptide): KAFITVLEMTPVLGT
Described as above.

As for “Neurobeachin (endogenous) (from UniProt Q9EPN1 1-2936)”, the binding result was “binds” in assay [1]; “binds” in assay [2]; “binds” in assay [3]; “no binding” in assay [4]; “binds” in assay [5].
